The source gives no read counts; variants with many changes may rest on few reads.
B1: LINE1-mini (parent)
chain: GGCAGAGCUCAACACAGCGUGGCAAAGUGGCUGUGGCUAGACUGCC

Variants of: B1
Experiment: self-cleavage, relative activity (ratio to wild type); higher = more cleavage; in vitro, sequencing; the parent is a self-cleaving ribozyme

Row | Variant | self-cleavage
1 | G1C C15U G33U G35U | 0.05
2 | G1C C8U C10G C23A G27U | 0.01
3 | G1C C13G A26C | 0
4 | G1C G5U G35A C45U | 0
5 | G1C C18U G21C | 0.23
6 | G1C G5A G30C | 0.01
7 | G1C G17C A39C | 0.01
8 | G1C C18A G36C | 0
9 | G1C G30U G36A | 0.05
10 | G1C C13U G30U A39U C46G | 0.04
11 | G1U A4U G17C A26C | 0.1
12 | G1C U28A G30A | 0.03
13 | G1C C15G G22C U38A | 0
14 | G1C U32A C42U | 0
15 | G1C C23A G36U A39G | 0.04
16 | G1C G36A C46A | 0.13
17 | G1C C8G G29U C31A | 0
18 | G1C C13U U20A G21A A39U | 0.03
19 | G1C C8G A12U A41C | 0.01
20 | G1U A4C A39U C42U C46U | 0.01
21 | G1C G2A C18G G29C C37A A41G | 0.02
22 | G1C U9A G30A G36A U43A | 0.01
23 | G1C G30A G44U | 0.03
24 | G1C U28A G35C | 0.01

Row | Variant | self-cleavage
25 | G1C C8A U9C G27A G40A | 0.01
26 | G1C G7A C18A | 0.03
27 | G1C G7U G19U U32C | 0.04
28 | G1C G5A A6U C37A C42G | 0.01
29 | G1C C18G G30U | 0.03
30 | G1C C10G G21U C31U U34A | 0
31 | G1C U9A G19A C46A | 0.1
32 | G1C G5U C18G C46A | 0.01
33 | G1C G2U U9G C23U | 0.02
34 | G1C U20A C23G | 0.04
35 | G1C G7U U9C U28C C31U G33U G40C C45A | 0.03
36 | G1C C18A G19C G21C G22C A25G A26U U32C G33A | 0.01
37 | G1C C8G A14U | 0
38 | G1C C10A A24U G35U C37U | 0.01
39 | G1C G21U U32G | 0.01
40 | G1C C10A A26G | 0.04
41 | G1C G7C C13U C31U | 0.02
42 | G1C C15U G40U | 0.07
43 | G1C C10A C15U A25G G30U | 0
44 | G1C G5C A11C C18U | 0.01
45 | G1C G5U A41G G44A | 0.02
46 | G1C G5U C10A U34G | 0.01
47 | G1C G7C A14C | 0.01
48 | G1C G17A C18A G27U | 0

Row | Variant | self-cleavage
49 | G1C C13A C15U U38C | 0.06
50 | G1C C10A U20G G40U | 0.02
51 | G1U A4U C8U G22A | 0.08
52 | G1C C18U U20G U28G U32C G40A | 0
53 | G1C G5C G17A G19A G29A G40U | 0.08
54 | G1C G2U C18A G36U A41C | 0.02
55 | G1C G2U G5C C18U U32C | 0.04
56 | G1C C10A A16G G33U | 0
57 | G1C C15G C31G U38G | 0
58 | G1C G36A U38G A41G | 0.02
59 | G1U A4G G19U C31G A39G | 0.04
60 | G1C G5U U20C G40U | 0.02
61 | G1C G19C U43C C45A | 0.02
62 | G1C G7U C8U U20C G27A G36C | 0.05
63 | G1C C13A A16G | 0.05
64 | G1C U34A G40U G44C | 0.01
65 | G1C G19U A25C G35C G36U | 0.01
66 | G1C G5C C45A | 0.01
67 | G1C G7C A11U A14G G29C G30U | 0.01
68 | G1C C10A G29U G33A | 0.01
69 | G1C G17A C46U | 0.06
70 | G1C G29U G36A | 0.05
71 | G1C G5A G21U A24G U28C U43C G44A | 0.01
72 | G1C C13A C31U U32G | 0.02

Row | Variant | self-cleavage
73 | G1C G19U A26G C37U | 0.04
74 | G1C U9A C13U G30C | 0
75 | G1C G27A C46U | 0.12
76 | G1C G22A C37U | 0
77 | G1C C15G U28G | 0.01
78 | G1C G19U G27C G44C | 0.05
79 | G1C G7C G22U U34C G40A C46G | 0.03
80 | G1C C31A C42G | 0.01
81 | G1C G21A G22U G40A G44C | 0.03
82 | G1C G5A G27U A41C | 0.04
83 | G1C U9C G17U C18G G35U G36A | 0
84 | G1U A4C C8U A14C C42A | 0.01
85 | G1C G7C G27U C37A | 0
86 | G1C C8U C15U G35U | 0.02
87 | G1C C10A A26U A41G G44A C45A | 0.07
88 | G1C C13A A26G G33A U43C | 0.01
89 | G1C U20C U38G | 0.01
90 | G1C G7U C13U C31G G40C A41C U43A G44A | 0
91 | G1C U9A C23G A26G | 0.08
92 | G1C C10A C15A G22C | 0.02
93 | G1C G2A C18A C23A | 0
94 | G1C U20C G21U | 0.03
95 | G1C C10U U34A | 0.02
96 | G1C U38C C45G | 0

Row | Variant | self-cleavage
97 | G1C G35C G40C | 0.01
98 | G1C G21U G33C | 0.01
99 | G1C C10U U28C G29U U32C G40C | 0
100 | G1C G7C C8A G40U | 0.05
101 | G1C C10A G21C U28A G33C | 0
102 | G1C G5A C10U | 0.02
103 | G1U A4U C42G | 0.04
104 | G1C C8A G17C G40U | 0.06
105 | G1C G22C G36A U43G | 0.09
106 | G1C G7C C8U A11U C45G | 0.01
107 | G1C G2U U9C U38G | 0.05
108 | G1C C10U C15G C18G G27A C46A | 0.01
109 | G1U A4G U28G C46U | 0.21
110 | G1C G21U A26U | 0.31
111 | G1C C15U C18A G27U G40U | 0.02
112 | G1C G30A A39C | 0.02
113 | G1C U9G G19U G40A | 0
114 | G1C G22C C23A U28A | 0.3
115 | G1C G2A G7A | 0.17
116 | G1C U9G C23A C31U | 0
117 | G1C C10A U43A | 0
118 | G1C C8G G19A G21U C31G | 0.03
119 | G1C G22A A26G U32G | 0.06
120 | G1C G2A C18A C23U C42A | 0.02

Row | Variant | self-cleavage
121 | G1U A4G C13A A16G G30A | 0.06
122 | G1C C8G G17A | 0.01
123 | G1C C13U G21A G30C G40A | 0.01
124 | G1C G2U G22U A26G C31U C42A C46U | 0.01
125 | G1U A4C C18U A39C | 0.05
126 | G1C G7U A16C G33U C37G G40U | 0.01
127 | G1C C10G A41C | 0.02
128 | G1C G2A C31G U32G G40A | 0.06
129 | G1C C10A C18A C23U | 0.01
130 | G1C G7A C46G | 0.07
131 | G1C C15A G27C G44C C45G | 0.05
132 | G1C C18A G19U U20A A41G | 0.01
133 | G1U A4G G21A C23A U43G C45A | 0.06
134 | G1C C10A A25C A41U | 0
135 | G1C U9C A12U G27C G29U U32A | 0.01
136 | G1C G19C C37A | 0.02
137 | G1C C13U G21U | 0.08
138 | G1C G30U C42A | 0.02
139 | G1C U32A G33C G44A C46A | 0
140 | G1C C23G G40U | 0.02
141 | G1C G5A A11G U32C | 0.02
142 | G1C G2U U9G G21U C42A C45U | 0.03
143 | G1C G5U C10A | 0.01
144 | G1C G5U C10G | 0.01

Row | Variant | self-cleavage
145 | G1C C13G A16G G22U | 0.01
146 | G1C G36C G40U | 0.01
147 | G1C C23G C42A | 0.03
148 | G1C C8A G17U C18A A25U G40U | 0.04
149 | G1C G7C C15U G27C C42U | 0.01
150 | G1C G2U U9G A16C C18A | 0.05
151 | G1C C10A C31U U32G | 0.02
152 | G1C C13A G17U G22A G36U G40U | 0.03
153 | G1C G2U A14G | 0.1
154 | G1C G5U G19A | 0.01
155 | G1C G7U G17A | 0.04
156 | G1C U20A A24U G35A | 0.03
157 | G1C G2A G40A | 0.06
158 | G1C C8A C23U | 0.07
159 | G1U A4G C23A G27C G35A | 0.38
160 | G1C G22C A39U C45A | 0.06
161 | G1C G2C U9A A16G | 0.05
162 | G1C G2U C10A C18G U28C | 0.02
163 | G1C U9A A39C | 0.02
164 | G1C C10G A11C G22A A25C U38A | 0
165 | G1C C18G G35U | 0.02
166 | G1C C15G A24G G29U C42U G44U | 0
167 | G1C G19A G36U | 0.03

Source: the RNAGym collection of RNA variant scans (doi:10.7554/elife.90254)
